Experimental data taken from the supplement of paper PMC3724861.
The other results are listed elsewhere or left out.

The sequences below were run on T1, Caupolican (Caup) homeodomain DNA-binding domain (assay: PBM E-score (8-mer, recovered from the published 9-mer minima) (E-score (dimensionless, -0.5 to 0.5)); Drosophila protein; higher = stronger relative binding preference, active = 0.31 or more).
T1 sequence: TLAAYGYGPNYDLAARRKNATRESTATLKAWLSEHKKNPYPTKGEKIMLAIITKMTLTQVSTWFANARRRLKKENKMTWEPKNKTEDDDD
How it was run: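 An enrichment score, with higher meaning stronger, expresses relative binding preference for each short DNA word. The protein used was Caup's homeodomain DNA-binding domain (residues 214-303), produced by in vitro transcription and translation and tested at 100 nM on custom-designed protein binding microarrays. The 8-mer values were recovered from published 9-mer scores, each equal to the lower of its two constituent 8-mer scores.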

PBM E-score, inactive:
TGCATGAA 0.126, GATACAAC 0.207, ATTTACGG 0.0533, ATTTTGAA 0.0732, GACTCAAC 0.0307, AGCAGATA 0.0223, CTTGCATA 0.0657, ACCCAGCG -0.215, AAGGGATT -0.0247, ACTGAGGA -0.111, AAAGAGGT -0.00981, ACCACTAT 0.0907, CCATTTAC 0.0731, ATTTAGCC -0.0256, ATGATGAA 0.158, CACATCCC -0.0152, GGCGATAA -0.141, GACATTAC 0.199, AGGCCGAA -0.0931, AGATCGTC -0.0169, ACCAACTG 0.0375, TATCGCGA -0.0271, GACGAGGA 0.0375, ACAAGGTG 0.255, CTCTGGTA 0.0517, AGCCGTGG -0.188, AGAAGCAG -0.0606, CATAGTGG -0.0156, CGGGCTAA -0.199, ACCCCGAC -0.161, ACTTACCA 0.00311, CCTTGGGA -0.14, AGTCGAGG -0.0754, GTAGACTA 0.0347, AGGGTCAG -0.187, AGACAGAC 0.102, CTCAACTA 0.0164, AATCCCTA 0.0149, ACTATCCT -0.00826, AGGGCTAG -0.145, AGCCTGGA -0.19, GAACGAAC 0.0277, AAAGTCCA -0.0306, AAAATGGC -0.00549, CACAGTTC 0.0267, CACTTTCG 0.0317, CATAGCGA 0.0218, CGTCACCC -0.234, AGGTGGGG -0.193, GTCCCTGA -0.0148, GAGATGGC -0.0967, GTCCAGAA 0.051, GCGGCGGA -0.222, CCTTATGC -0.109, GAGCTATC -0.11, ATGACTGG -0.00062, CCGTCCCG -0.221, CTAGGAAA -0.0105, CCGGCAAC -0.0754

PBM E-score, ≥ 0.159:
ATATAGAA

PBM E-score, ≥ 0.151:
TAATAGAA
